# Data reported in PubChem BioAssay AID686978 (National Center for Advancing Translational Sciences (NCATS), 2013).
# “And” between values parts separate entries of the source, which are not always exact repeats. Equal entries are not always repeated. The campaign covered roughly 420,000 compounds. About 64,000 (15%) were called active. Inconclusive results, whose numbers are uncertain, are shown with a selection of clear calls. Calls come from the whole dose curve; as a rule, active = well fitted inhibition curve with a large enough effect; inconclusive = small, poorly fitted or top-dose-only effect; inactive = flat fitted curve, though single readings scatter. Potencies of inconclusive entries are left out as doubtful fits.
# Assay: qHTS for Inhibitors of human tyrosyl-DNA phosphodiesterase 1 (TDP1): qHTS in cells in absence of CPT; note: nearly all actives have a fitted effect of over 55% in size
# Details: DT40 Tdp1-/- hTDP1 cells, no CPT, ATP luminescence, 48 h; activity change, negative = growth inhibition: at 46.2 µM (top of the series)
# How it was run: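 DT40 Tdp1-/-;hTDP1 cells, no CPT (DMSO vehicle only), 400 cells/well; compounds pin-transferred; ≥48 hr, 37 °C; CellTiter-Glo 30 min RT dark, luminescence read.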
# % is set by controls: 0 for no effect and ±100 for the full control effect; potency is the fitted concentration of half-maximal effect; tags give direction and shape of the fitted curve.
Compound,Potency,"activity change, negative = growth inhibition"
CC/C(=C\C(=O)c1cccnc1)Nc1ccc(C)c(C)c1,"inconclusive [inhibitor, single point]",–
NS(=O)(=O)c1ccc(CNC(=O)c2cc(-c3ccccn3)nc3ccc(Cl)cc23)cc1,"inconclusive [inhibitor, single point]",–
Cc1nnc(N2CCCCC2)c2ccccc12,–,inconclusive: -32% [inhibitor]
Cc1cc2cc3c(cc2nc1SCC(=O)OC(C)C)OCCO3,"inconclusive [inhibitor, single point]",–
Cc1ccc(S(=O)(=O)c2cn(C)c3cc(N4CCN(c5ccccc5)CC4)c(F)cc3c2=O)cc1,active: 7.31 µM,–
COc1ccc([C@@H]2CC=C(C(=O)O)CN2S(=O)(=O)c2ccc(C)cc2)cc1OC,inactive,–
Cc1c(C(=O)NCc2cccs2)sc(=O)n1Cc1ccc(S(C)(=O)=O)cc1,"inconclusive [inhibitor, single point]",–
CCCCn1c(=O)c(-c2ccccc2)c(O)c2ccccc21,inactive,–
c1ccc2c(c1)Sc1cnccc1N2CC1CO1 (stereo not given),active: 10.3 µM,–
Cc1cc(C)n2nc3nc(N4CCCCC4)nc(-c4ccco4)c3c2n1,active: 20.6 µM,–
CCOC(=O)c1ccc(NC(=O)c2nc(S(=O)(=O)Cc3ccccc3)ncc2Cl)cc1,active: 1.16 µM and active: 1.3 µM,–
CC(C(=O)N=c1sc2ccccc2n1C)N1C(=O)C2CC=CCC2C1=O (stereo not given),"inconclusive [inhibitor, single point]",–
COc1ccc(NC(=O)c2c(NCc3ccc(C)o3)sc3c2CCC(C)C3)cc1 (stereo not given),active: 9.2 µM,–
CCNc1nc(NCC)n2c(SCC(=O)Nc3cc(Cl)ccc3OC)nnc2n1,"inconclusive [inhibitor, single point]",–
c1ccc(-c2nc(-n3nc4ccccc4n3)nc3ccccc23)cc1,"inconclusive [inhibitor, single point]",–
CS(=O)(=O)N(Cc1ccc(C(=O)NN=C2CCCCCC2)cc1)c1ccccc1,–,inconclusive: -32.3% [inhibitor]
COc1ccc(CN(C(=O)c2cccs2)c2ccccc2)cc1,"inconclusive [inhibitor, partial curve]",–
COc1ccc(-c2ccnc3nc(N4CCOCC4)nn23)cc1,inactive,–
CCOC(=O)CN(C(=O)CSc1nnc(CNc2ccc(F)cc2)n1CC)c1ccc(F)cc1,"inconclusive [inhibitor, single point]",–
CCOc1ccc(Nc2nc(N)c([N+](=O)[O-])c(N3CCOCC3)n2)cc1,"inconclusive [inhibitor, single point]",–
CCOc1ccccc1NC(=O)C1CCN(S(=O)(=O)c2ccc(Br)cc2)CC1,"inconclusive [inhibitor, partial curve]",–
CN(C)c1ccc(/C=N/Nc2nncc3ccccc23)cc1,active: 13 µM,–
Cc1ccccc1NC(=O)c1ccccc1N(C)S(=O)(=O)c1ccccc1,"inconclusive [inhibitor, single point]",–

Compound,Potency,"activity change, negative = growth inhibition"
Cc1ccc(S(=O)(=O)N(CCCO)Cc2cc3c(C)ccc(C)c3[nH]c2=O)cc1,"inconclusive [inhibitor, single point]",–
COc1ccc(CCNC(=O)CN2CCN(c3ccccc3Cl)CC2)cc1,"inconclusive [inhibitor, single point]",–
O=C(COc1ccc2c(c1)CCC2)NCc1cccc(Cl)c1,"inconclusive [inhibitor, single point]",–
N#C/C(=N/Nc1ccccc1[N+](=O)[O-])C(N)=S,"inconclusive [inhibitor, partial curve]",–
CCC1C(=O)CC(c2ccco2)NC1c1ccco1 (stereo not given),inactive,–
Cc1ccc(NC(=O)CN(C)C(=O)Cc2coc3cc(C)c(C)cc23)cc1,"inconclusive [inhibitor, single point]",–
Cc1nn(-c2ccccc2)nc1C(=O)Nc1nnc(C(F)(F)F)s1,"inconclusive [inhibitor, single point]",–
Cc1cccc(-n2c(-c3csc(C)c3)n[nH]c2=S)c1,"inconclusive [inhibitor, single point]",–
Cc1ccc(C(O)P(=O)(OCc2ccccc2)c2ccc(N(C)C)cc2)cc1 (stereo not given),"inconclusive [inhibitor, single point]",–
CCCCNC(=O)c1sc(=S)n(-c2ccccc2OC)c1N,"inconclusive [inhibitor, single point]",–
COC(=O)CS(=O)(=O)c1ccsc1C(=O)Nc1ccc(F)cc1,inactive,–
CCC(C)NC(=O)c1ccccc1NC(=O)C(C)N(c1ccccc1)S(C)(=O)=O (stereo not given),inactive,–
COc1ccc(CN(C)CCCn2cnc3c(OCc4ccccc4)ncnc32)cc1,"inconclusive [inhibitor, single point]",–
Cc1ccc2nc3ccc(N4CCCCCCC4)nn3c(=O)c2c1,"inconclusive [inhibitor, partial curve]",–
COCCCNS(=O)(=O)c1ccc2[nH]c3c(c2c1)CCCCC3,"inconclusive [inhibitor, single point]",–
C[C@@H](C(=O)NNC(=O)c1ccc(Cl)cc1)N1C(=O)C2CC=CCC2C1=O (stereo not given in full),inactive,–
CCCN1CCN(C(=O)CCNC(=O)Cn2cnc3ccccc3c2=O)CC1,inactive,–
CCC(CC)C(=O)Nc1cccc(C(=O)c2ccccc2)c1,–,inconclusive: -34.9% [inhibitor]
CCOc1ccc(NC2=C(Cl)C(=O)N(Cc3ccccc3)C2=O)cc1,"inconclusive [inhibitor, single point]",–
COC(=O)c1cnn(-c2ccc(F)cc2F)c1/C=N/NC(N)=S,"inconclusive [inhibitor, partial curve]",–
Cc1c(NC(=O)Cn2ccc([N+](=O)[O-])n2)c(=O)n(-c2ccccc2)n1C,inactive,–
COc1ccc(/C(=N\O)c2nccc3cc(OC)c(OC)cc23)cc1OC,–,inconclusive: -32.2% [inhibitor]
